# Laboratory results published in the supplement of paper PMC8728848.
# The list shows a part of the results.
# B1: Pa IMPa (Pseudomonas aeruginosa), Q9I5W4 (protein)
# chain: MSLSTTAFPSLQGENMSRSPIPRHRALLAGFCLAGALSAQAATQEEILDAALVSGDSSQLTDSHLVALRLQQQVERIRQTRTQLLDGLYQNLSQAYDPGAASMWVLPANPDNTLPFLIGDKGRVLASLSLEAGGRGLAYGTNVLTQLSGTNAAHAPLLKRAVQWLVNGDPGAATAKDFKVSVVGVDKTAALNGLKSAGLQPADAACNALTDASCASTSKLLVLGNGASAASLSATVRARLQAGLPILFVHTNGWNQSSTGQQILAGLGLQEGPYGGNYWDKDRVPSSRTRTRSVELGGAYGQDPALVQQIVDGSWRTDYDWSKCTSYVGRTTCDDVPGLSDFSKRVDVLKGALDAYNQKAQNLFALPGTTSLRLWLLWADAVRQNIRYPMDKAADTARFQETFVADAIVGYVREAGAAQKELGSYAGQRQQSMPVSGSEETLTLTLPSAQGFTAIGRMAAPGKRLSIRIEDAGQASLAVGLNTQRIGSTRLWNTRQYDRPRFLKSPDIKLQANQSVALVSPYGGLLQLVYSGATPGQTVTVKVTGAASQPFLDIQPGEDSSQAIADFIQALDADKADWLEIRSGSVEVHAKVEKVRGSIDKDYGGDVQRFIRELNEVFIDDAYTLAGFAIPNQAKTPAIQQECAARGWDCDSETLHKLPGTQHINVDQYAQCGGGCSGNPYDQTWGLNPRGWGESHELGHNLQVNRLKVYGGRSGEISNQIFPLHKDWRVLREFGQNLDDTRVNYRNAYNLIVAGRAEADPLAGVYKRLWEDPGTYALNGERMAFYTQWVHYWADLKNDPLQGWDIWTLLYLHQRQVDKSDWDANKAALGYGTYAQRPGNSGDASSTDGNDNLLLGLSWLTQRDQRPTFALWGIRTSAAAQAQVAAYGFAEQPAFFYANNRTNEYSTVKLLDMSQGSPAWPFP
# Assays:
# Assay in all cases: glycan array binding signal (z-score within array); higher = stronger binding
# Settings in all cases: glycan notation: IUPAC condensed, linker removed
# [1] = biological target: Gal(b1-3)GlcNAc(b1-2)Man(a1-3)[Gal(b1-3)GlcNAc(b1-2)Man(a1-6)]Man(b1-4)GlcNAc(b1-4)[Fuc(a1-6)]GlcNAc
# Method in brief: (§1)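 Glycan array data came from 3228 arrays in the Consortium for Functional Glycomics database, and only arrays with an available protein sequence were kept. Glycan names were put into IUPAC-condensed notation, and columns mapping to the same glycan were averaged. The binding signal is a within-array Z-score, averaged across arrays of one protein sequence run at different concentrations or buffers and across linkers. A negative Z-score can be read as non-binding.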
# [2] = biological target: Gal(b1-3)GlcNAc(b1-2)Man(a1-3)[GlcNAc(b1-4)][Gal(b1-3)GlcNAc(b1-2)Man(a1-6)]Man(b1-4)GlcNAc(b1-4)GlcNAc
# Method in brief: as §1
# [3] = biological target: Gal(b1-3)GlcNAc(b1-2)[Gal(b1-3)GlcNAc(b1-6)]Man(a1-6)[Gal(b1-3)GlcNAc(b1-2)Man(a1-3)]Man(b1-4)GlcNAc(b1-4)GlcNAc
# Method in brief: as §1
# [4] = biological target: Gal(b1-3)GlcNAc(b1-3)Gal(b1-3)GlcNAc
# Method in brief: as §1
# [5] = biological target: Gal(b1-3)GlcNAc(b1-3)Gal(b1-4)Glc
# Method in brief: as §1
# [6] = biological target: Gal(b1-3)GlcNAc(b1-3)Gal(b1-4)GlcNAc
# Method in brief: as §1
# [7] = biological target: Gal(b1-3)GlcNAc(b1-3)Gal(b1-4)GlcNAc(b1-2)Man(a1-3)[Gal(b1-3)GlcNAc(b1-3)Gal(b1-4)GlcNAc(b1-2)Man(a1-6)]Man(b1-4)GlcNAc(b1-4)GlcNAc
# Method in brief: as §1
# [8] = biological target: Gal(b1-3)GlcNAc(b1-3)Gal(b1-4)GlcNAc(b1-2)[Gal(b1-3)GlcNAc(b1-3)Gal(b1-4)GlcNAc(b1-6)]Man(a1-6)[Gal(b1-3)GlcNAc(b1-3)Gal(b1-4)GlcNAc(b1-2)Man(a1-3)]Man(b1-4)GlcNAc(b1-4)[Fuc(a1-6)]GlcNAc
# Method in brief: as §1
# [9] = biological target: Gal(b1-3)GlcNAc(b1-3)Gal(b1-4)GlcNAc(b1-3)Gal(b1-4)GlcNAc(b1-2)[Gal(b1-3)GlcNAc(b1-3)Gal(b1-4)GlcNAc(b1-3)Gal(b1-4)GlcNAc(b1-6)]Man(a1-6)[Gal(b1-3)GlcNAc(b1-3)Gal(b1-4)GlcNAc(b1-3)Gal(b1-4)GlcNAc(b1-2)Man(a1-3)]Man(b1-4)GlcNAc(b1-4)[Fuc(a1-6)]GlcNAc
# Method in brief: as §1
# [10] = biological target: Gal(b1-3)GlcNAc(b1-3)Gal(b1-4)GlcNAc(b1-6)[Gal(b1-3)GlcNAc(b1-3)]Gal(b1-4)Glc
# Method in brief: as §1
# [11] = biological target: Gal(b1-3)GlcNAc(b1-3)Gal(b1-4)[Fuc(a1-3)]GlcNAc
# Method in brief: as §1
# [12] = biological target: Gal(b1-3)GlcNAc(b1-3)Gal(b1-4)[Fuc(a1-3)]GlcNAc(b1-6)[Gal(b1-3)GlcNAc(b1-3)]Gal(b1-4)Glc
# Method in brief: as §1
# [13] = biological target: Gal(b1-3)GlcNAc(b1-3)GalNAc
# Method in brief: as §1
# [14] = biological target: Gal(b1-3)GlcNAc(b1-6)Gal(b1-4)GlcNAc
# Method in brief: as §1
# [15] = biological target: Gal(b1-3)GlcNAc(b1-6)GalNAc
# Method in brief: as §1
# [16] = biological target: Gal(b1-3)GlcNAc(b1-6)[Gal(b1-3)]GalNAc
# Method in brief: as §1
# Gal(b1-3)GlcNAc6S = biological target: Gal(b1-3)GlcNAc6S
# Method in brief: as §1
# [17] = biological target: Gal(b1-3)[Fuc(a1-4)]GlcNAc
# Method in brief: as §1
# [18] = biological target: Gal(b1-3)[Fuc(a1-4)]GlcNAc(b1-2)Man
# Method in brief: as §1
# [19] = biological target: Gal(b1-3)[Fuc(a1-4)]GlcNAc(b1-2)Man(a1-3)[Gal(b1-3)[Fuc(a1-4)]GlcNAc(b1-2)Man(a1-6)]Man(b1-4)GlcNAc(b1-4)[Fuc(a1-6)]GlcNAc
# Method in brief: as §1
# [20] = biological target: Gal(b1-3)[Fuc(a1-4)]GlcNAc(b1-3)Gal(b1-3)[Fuc(a1-4)]GlcNAc
# Method in brief: as §1
# [21] = biological target: Gal(b1-3)[Fuc(a1-4)]GlcNAc(b1-3)Gal(b1-4)[Fuc(a1-3)]GlcNAc
# Method in brief: as §1
# [22] = biological target: Gal(b1-3)[Fuc(a1-4)]GlcNAc(b1-6)GalNAc
# Method in brief: as §1
# [23] = biological target: Gal(b1-3)[GlcNAc(b1-6)]GalNAc
# Method in brief: as §1
# [24] = biological target: Gal(b1-3)[Neu5Ac(a2-6)]GalNAc
# Method in brief: as §1
# [25] = biological target: Gal(b1-3)[Neu5Ac(a2-6)]GlcNAc(b1-4)Gal(b1-4)Glc
# Method in brief: as §1
# [26] = biological target: Gal(b1-3)[Neu5Ac(b2-6)]GalNAc
# Method in brief: as §1
# Gal(b1-4)Gal = biological target: Gal(b1-4)Gal
# Method in brief: as §1
# [27] = biological target: Gal(b1-4)GalNAc(a1-3)[Fuc(a1-2)]Gal(b1-4)GlcNAc
# Method in brief: as §1
# [28] = biological target: Gal(b1-4)GalNAc(b1-3)[Fuc(a1-2)]Gal(b1-4)GlcNAc
# Method in brief: as §1
binder,measurement,setting,value
B1,glycan array binding signal (z-score),[1],-0.661
same,glycan array binding signal (z-score),[2],0.31
same,glycan array binding signal (z-score),[3],-0.438
same,glycan array binding signal (z-score),[4],-0.434
same,glycan array binding signal (z-score),[5],0.215
same,glycan array binding signal (z-score),[6],-0.303
same,glycan array binding signal (z-score),[7],0.042
same,glycan array binding signal (z-score),[8],0.004
same,glycan array binding signal (z-score),[9],-0.106
same,glycan array binding signal (z-score),[10],-0.063
same,glycan array binding signal (z-score),[11],-0.189
same,glycan array binding signal (z-score),[12],0.072
same,glycan array binding signal (z-score),[13],-0.268
same,glycan array binding signal (z-score),[14],0.734
same,glycan array binding signal (z-score),[15],-0.174
same,glycan array binding signal (z-score),[16],0.031
same,glycan array binding signal (z-score),Gal(b1-3)GlcNAc6S,-0.334
same,glycan array binding signal (z-score),[17],-0.109
same,glycan array binding signal (z-score),[18],-0.48
same,glycan array binding signal (z-score),[19],0.202
same,glycan array binding signal (z-score),[20],0.216
same,glycan array binding signal (z-score),[21],-0.165
same,glycan array binding signal (z-score),[22],0.744
same,glycan array binding signal (z-score),[23],-0.354
same,glycan array binding signal (z-score),[24],-0.295
same,glycan array binding signal (z-score),[25],0.272
same,glycan array binding signal (z-score),[26],-0.582
same,glycan array binding signal (z-score),Gal(b1-4)Gal,0.309
same,glycan array binding signal (z-score),[27],-0.544
same,glycan array binding signal (z-score),[28],0.433
